Here are results for 31 sequences from PMC12820563.

This is one part of the list. The list includes weakly bound sequences.

The test has as its target T1, MBP-FoxP3dN (UniProt Q99JB6).
T1 sequence: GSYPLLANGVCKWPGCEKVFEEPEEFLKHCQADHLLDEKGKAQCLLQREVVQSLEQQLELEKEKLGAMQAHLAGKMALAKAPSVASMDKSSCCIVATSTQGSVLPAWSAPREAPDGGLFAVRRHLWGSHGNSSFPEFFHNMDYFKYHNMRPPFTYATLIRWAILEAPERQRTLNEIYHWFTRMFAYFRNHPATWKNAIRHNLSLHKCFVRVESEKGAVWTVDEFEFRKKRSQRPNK
As to the kind of experiment: PD-seq (MBP pull-down with sequencing). Conditions: 20 mM Tris-HCl pH 7.5, 100 mM NaCl, 1.5 mM MgCl2, 0.4 uM protein, 0.1 uM dsDNA library, 30 min, room temperature, amylose pull-down; high values mean tight binding; double strand, one strand shown.
For the sequence “GATGATTGTTCTCCCAGCTGATGAATTTTGCCAGTCGAGTAAACAAATTTTCCTAATCTTTCTGTTCAAGCGCCATCTAC”, the binding signal (RPM ratio (pull-down/input)) was 2.91.
As for “GATGATTGTTCTCCCAGCTGATGAATTATACTTGTCGAGTAAACAAATTTTCCTAATCTTTCTGTTCAAGCGCCATCTAC”, the figure is 1.05.
The figure for “GATGATTGTTCTCCCAGCTGATGAATTCGAACTTTCGAGTAAACAAATTTTCCTAATCTTTCTGTTCAAGCGCCATCTAC” is 0.271; for “GATGATTGTTCTCCCAGCTGATGAATTCTCTCGCTCGAGTAAACAAATTTTCCTAATCTTTCTGTTCAAGCGCCATCTAC” it is 0.226.
In the case of “GATGATTGTTCTCCCAGCTGATGAATTCCGGCAGTCGAGTAAACAAATTTTCCTAATCTTTCTGTTCAAGCGCCATCTAC”, the binding signal (RPM ratio (pull-down/input)) came out at 0.341.
“GATGATTGTTCTCCCAGCTGATGAATTTTGCGAATCGAGTAAACAAATTTTCCTAATCTTTCTGTTCAAGCGCCATCTAC”: the binding signal (RPM ratio (pull-down/input)) was found to be 0.413.
Consider “GATGATTGTTCTCCCAGCTGATGAATTGCGTCAATCGAGTAAACAAATTTTCCTAATCTTTCTGTTCAAGCGCCATCTAC”, for which the binding signal (RPM ratio (pull-down/input)) turned out to be 0.903.
“GATGATTGTTCTCCCAGCTGATGAATTCCGTGCATCGAGTAAACAAATTTTCCTAATCTTTCTGTTCAAGCGCCATCTAC”: the binding signal (RPM ratio (pull-down/input)) is 1.16.
“GATGATTGTTCTCCCAGCTGATGAATTATCGGGGTCGAGTAAACAAATTTTCCTAATCTTTCTGTTCAAGCGCCATCTAC”: the binding signal (RPM ratio (pull-down/input)) stood at 0.238.
The figure for “GATGATTGTTCTCCCAGCTGATGAATTACAGGGCTCGAGTAAACAAATTTTCCTAATCTTTCTGTTCAAGCGCCATCTAC” is 0.293; for “GATGATTGTTCTCCCAGCTGATGAATTTCATATGTCGAGTAAACAAATTTTCCTAATCTTTCTGTTCAAGCGCCATCTAC” it is 0.754; for “GATGATTGTTCTCCCAGCTGATGAATTTTCGAGATCGAGTAAACAAATTTTCCTAATCTTTCTGTTCAAGCGCCATCTAC” it is 0.235.
As for “GATGATTGTTCTCCCAGCTGATGAATTTAACAGCTCGAGTAAACAAATTTTCCTAATCTTTCTGTTCAAGCGCCATCTAC”, the figure is 0.369; as for “GATGATTGTTCTCCCAGCTGATGAATTGCCGGCTTCGAGTAAACAAATTTTCCTAATCTTTCTGTTCAAGCGCCATCTAC”, 0.496; as for “GATGATTGTTCTCCCAGCTGATGAATTTGCTACGTCGAGTAAACAAATTTTCCTAATCTTTCTGTTCAAGCGCCATCTAC”, 0.807.
For the sequence “GATGATTGTTCTCCCAGCTGATGAATTGCATTCGTCGAGTAAACAAATTTTCCTAATCTTTCTGTTCAAGCGCCATCTAC”, the binding signal (RPM ratio (pull-down/input)) stood at 3.88.
On to “GATGATTGTTCTCCCAGCTGATGAATTGCACAGGTCGAGTAAACAAATTTTCCTAATCTTTCTGTTCAAGCGCCATCTAC”, for which the binding signal (RPM ratio (pull-down/input)) came to 0.57.
As to “GATGATTGTTCTCCCAGCTGATGAATTTTTTTAATCGAGTAAACAAATTTTCCTAATCTTTCTGTTCAAGCGCCATCTAC”, the binding signal (RPM ratio (pull-down/input)) turned out to be 0.188.
Turning to “GATGATTGTTCTCCCAGCTGATGAATTGTGAAGCTCGAGTAAACAAATTTTCCTAATCTTTCTGTTCAAGCGCCATCTAC”, the binding signal (RPM ratio (pull-down/input)) was 0.447.
As for “GATGATTGTTCTCCCAGCTGATGAATTGCGAGCCTCGAGTAAACAAATTTTCCTAATCTTTCTGTTCAAGCGCCATCTAC”, the figure is 0.895; as for “GATGATTGTTCTCCCAGCTGATGAATTGCGACCATCGAGTAAACAAATTTTCCTAATCTTTCTGTTCAAGCGCCATCTAC”, 1.11.
The figure for “GATGATTGTTCTCCCAGCTGATGAATTACGTCTGTCGAGTAAACAAATTTTCCTAATCTTTCTGTTCAAGCGCCATCTAC” is 0.636; for “GATGATTGTTCTCCCAGCTGATGAATTCCCCTTGTCGAGTAAACAAATTTTCCTAATCTTTCTGTTCAAGCGCCATCTAC” it is 0.259.
Consider “GATGATTGTTCTCCCAGCTGATGAATTAGTTCATTCGAGTAAACAAATTTTCCTAATCTTTCTGTTCAAGCGCCATCTAC”, for which the binding signal (RPM ratio (pull-down/input)) came to 0.471.
Regarding “GATGATTGTTCTCCCAGCTGATGAATTTGGTAGGTCGAGTAAACAAATTTTCCTAATCTTTCTGTTCAAGCGCCATCTAC”, the binding signal (RPM ratio (pull-down/input)) was 0.705.
The figure for “GATGATTGTTCTCCCAGCTGATGAATTATATGTATCGAGTAAACAAATTTTCCTAATCTTTCTGTTCAAGCGCCATCTAC” is 2.22; for “GATGATTGTTCTCCCAGCTGATGAATTTTGCTACTCGAGTAAACAAATTTTCCTAATCTTTCTGTTCAAGCGCCATCTAC” it is 2.59; for “GATGATTGTTCTCCCAGCTGATGAATTGCCCCACTCGAGTAAACAAATTTTCCTAATCTTTCTGTTCAAGCGCCATCTAC” it is 0.519.
As for “GATGATTGTTCTCCCAGCTGATGAATTTGGTTCTTCGAGTAAACAAATTTTCCTAATCTTTCTGTTCAAGCGCCATCTAC”, the figure is 1.37; as for “GATGATTGTTCTCCCAGCTGATGAATTCACGGGTTCGAGTAAACAAATTTTCCTAATCTTTCTGTTCAAGCGCCATCTAC”, 0.299.
Take “GATGATTGTTCTCCCAGCTGATGAATTGGTTGCATCGAGTAAACAAATTTTCCTAATCTTTCTGTTCAAGCGCCATCTAC”: the binding signal (RPM ratio (pull-down/input)) was 2.53.
